Results as given in publication PMC10120764.
No constants are given. Whether binding was seen depends on the method and setting. Binding seen in cells or lysates may run through a third protein. Some entries that bind do so weakly or less than the wild type. For some assays here: Where a sequence is shown, tags or fusion partners need not be part of it.

Sequences of proteins named here, by UniProt entry; tags and fusion partners are left off.
UniProt Q8VIM5: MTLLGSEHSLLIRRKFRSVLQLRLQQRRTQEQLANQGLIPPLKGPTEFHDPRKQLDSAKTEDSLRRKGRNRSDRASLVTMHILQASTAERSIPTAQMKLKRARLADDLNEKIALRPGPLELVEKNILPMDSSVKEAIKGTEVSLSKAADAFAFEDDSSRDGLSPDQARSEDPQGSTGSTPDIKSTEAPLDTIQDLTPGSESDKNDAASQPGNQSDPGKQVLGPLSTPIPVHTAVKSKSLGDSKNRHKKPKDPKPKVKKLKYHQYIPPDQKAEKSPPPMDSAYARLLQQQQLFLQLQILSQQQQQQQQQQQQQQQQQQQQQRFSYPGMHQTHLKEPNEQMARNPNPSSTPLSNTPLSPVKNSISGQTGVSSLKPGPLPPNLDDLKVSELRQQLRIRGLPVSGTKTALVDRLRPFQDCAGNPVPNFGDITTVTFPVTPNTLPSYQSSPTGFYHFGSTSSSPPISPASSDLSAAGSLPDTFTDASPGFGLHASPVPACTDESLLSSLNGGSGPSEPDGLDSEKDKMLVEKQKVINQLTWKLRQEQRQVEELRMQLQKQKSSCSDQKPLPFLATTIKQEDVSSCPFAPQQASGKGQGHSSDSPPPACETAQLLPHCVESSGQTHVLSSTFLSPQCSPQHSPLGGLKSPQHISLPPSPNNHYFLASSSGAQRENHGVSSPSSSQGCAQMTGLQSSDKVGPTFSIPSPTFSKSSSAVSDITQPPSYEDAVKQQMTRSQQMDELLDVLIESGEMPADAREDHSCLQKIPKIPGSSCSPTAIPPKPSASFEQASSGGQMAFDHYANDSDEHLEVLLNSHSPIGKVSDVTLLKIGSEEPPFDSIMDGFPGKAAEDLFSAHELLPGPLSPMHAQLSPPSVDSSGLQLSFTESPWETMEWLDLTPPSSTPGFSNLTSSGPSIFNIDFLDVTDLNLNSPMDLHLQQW
UniProt Q8R5A0: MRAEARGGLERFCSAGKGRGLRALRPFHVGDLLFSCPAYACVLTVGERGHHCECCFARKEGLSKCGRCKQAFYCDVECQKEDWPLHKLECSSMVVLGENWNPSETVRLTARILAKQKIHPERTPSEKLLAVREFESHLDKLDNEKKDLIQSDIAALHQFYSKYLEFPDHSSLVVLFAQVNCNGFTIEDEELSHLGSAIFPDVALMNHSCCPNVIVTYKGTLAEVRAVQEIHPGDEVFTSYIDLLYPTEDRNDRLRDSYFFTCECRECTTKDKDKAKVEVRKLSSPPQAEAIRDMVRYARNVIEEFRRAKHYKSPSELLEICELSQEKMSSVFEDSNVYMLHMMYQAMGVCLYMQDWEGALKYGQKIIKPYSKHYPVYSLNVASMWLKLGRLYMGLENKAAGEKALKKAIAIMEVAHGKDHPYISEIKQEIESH
UniProt Q09472: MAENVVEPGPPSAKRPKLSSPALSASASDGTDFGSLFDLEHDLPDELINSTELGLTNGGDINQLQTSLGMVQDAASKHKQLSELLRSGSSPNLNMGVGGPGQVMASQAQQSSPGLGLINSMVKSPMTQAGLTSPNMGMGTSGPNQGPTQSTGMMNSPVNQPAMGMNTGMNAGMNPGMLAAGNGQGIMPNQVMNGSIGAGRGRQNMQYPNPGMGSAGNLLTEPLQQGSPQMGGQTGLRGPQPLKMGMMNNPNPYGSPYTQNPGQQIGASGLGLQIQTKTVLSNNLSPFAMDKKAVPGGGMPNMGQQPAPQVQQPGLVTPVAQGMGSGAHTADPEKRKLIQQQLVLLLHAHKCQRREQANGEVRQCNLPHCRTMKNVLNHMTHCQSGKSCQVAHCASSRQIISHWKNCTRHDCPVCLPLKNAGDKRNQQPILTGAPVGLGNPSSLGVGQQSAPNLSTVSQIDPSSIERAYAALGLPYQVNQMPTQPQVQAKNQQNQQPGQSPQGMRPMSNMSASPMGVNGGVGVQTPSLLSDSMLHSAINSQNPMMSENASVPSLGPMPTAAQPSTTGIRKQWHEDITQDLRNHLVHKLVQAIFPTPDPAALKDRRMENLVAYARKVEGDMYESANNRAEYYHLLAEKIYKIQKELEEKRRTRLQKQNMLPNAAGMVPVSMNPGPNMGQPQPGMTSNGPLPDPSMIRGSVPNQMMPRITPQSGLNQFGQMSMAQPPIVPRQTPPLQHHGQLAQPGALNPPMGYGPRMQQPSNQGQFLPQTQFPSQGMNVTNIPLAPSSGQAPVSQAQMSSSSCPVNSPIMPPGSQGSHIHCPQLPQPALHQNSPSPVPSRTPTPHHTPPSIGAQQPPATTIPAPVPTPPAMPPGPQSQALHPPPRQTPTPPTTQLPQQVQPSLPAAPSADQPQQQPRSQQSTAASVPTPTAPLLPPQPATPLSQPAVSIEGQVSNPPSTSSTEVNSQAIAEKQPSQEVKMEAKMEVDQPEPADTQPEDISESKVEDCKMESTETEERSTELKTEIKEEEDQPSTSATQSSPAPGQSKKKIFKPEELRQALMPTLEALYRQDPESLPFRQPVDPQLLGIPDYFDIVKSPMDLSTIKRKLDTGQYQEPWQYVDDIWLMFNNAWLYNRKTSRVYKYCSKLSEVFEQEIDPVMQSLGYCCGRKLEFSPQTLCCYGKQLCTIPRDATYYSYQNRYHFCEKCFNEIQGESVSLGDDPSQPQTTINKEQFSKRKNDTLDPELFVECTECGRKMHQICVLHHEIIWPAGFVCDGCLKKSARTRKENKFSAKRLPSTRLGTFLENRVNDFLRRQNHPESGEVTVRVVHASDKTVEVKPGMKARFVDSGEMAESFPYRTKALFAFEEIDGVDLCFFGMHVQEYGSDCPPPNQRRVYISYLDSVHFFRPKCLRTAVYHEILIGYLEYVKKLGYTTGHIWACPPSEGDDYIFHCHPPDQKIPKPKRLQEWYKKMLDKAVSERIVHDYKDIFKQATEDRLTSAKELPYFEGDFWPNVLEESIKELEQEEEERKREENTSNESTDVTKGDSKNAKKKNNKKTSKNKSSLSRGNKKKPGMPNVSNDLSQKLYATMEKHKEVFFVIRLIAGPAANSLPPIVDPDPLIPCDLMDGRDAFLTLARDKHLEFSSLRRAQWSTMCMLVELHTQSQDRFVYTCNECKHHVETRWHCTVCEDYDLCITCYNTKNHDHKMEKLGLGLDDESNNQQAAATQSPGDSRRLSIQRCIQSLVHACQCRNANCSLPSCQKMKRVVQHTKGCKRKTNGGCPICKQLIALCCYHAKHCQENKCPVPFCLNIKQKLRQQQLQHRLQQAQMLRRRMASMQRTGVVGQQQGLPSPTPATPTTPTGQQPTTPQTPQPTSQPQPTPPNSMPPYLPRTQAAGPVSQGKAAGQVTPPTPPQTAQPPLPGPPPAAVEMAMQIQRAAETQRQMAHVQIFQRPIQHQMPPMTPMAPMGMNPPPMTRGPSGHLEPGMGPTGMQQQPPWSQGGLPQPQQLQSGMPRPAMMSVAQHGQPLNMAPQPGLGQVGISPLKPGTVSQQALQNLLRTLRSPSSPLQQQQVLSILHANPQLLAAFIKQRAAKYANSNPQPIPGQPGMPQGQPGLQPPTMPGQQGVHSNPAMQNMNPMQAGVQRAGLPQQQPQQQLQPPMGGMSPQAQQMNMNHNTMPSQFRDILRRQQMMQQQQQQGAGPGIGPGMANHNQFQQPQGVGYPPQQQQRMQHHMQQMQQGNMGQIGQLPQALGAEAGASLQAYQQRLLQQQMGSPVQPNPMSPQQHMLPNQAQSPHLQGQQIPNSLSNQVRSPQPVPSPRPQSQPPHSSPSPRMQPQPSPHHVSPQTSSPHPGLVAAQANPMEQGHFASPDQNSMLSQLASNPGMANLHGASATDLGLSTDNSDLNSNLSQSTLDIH

Experiments:
[1] = molecular target: myocardin, endogenous in primary murine aortic VSMCs (mouse (endogenous in primary murine aortic VSMCs)) (UniProt Q8VIM5); test: proximity ligation; primary murine aortic VSMCs, serum-starved 24 h, treated with vehicle or PDGF-BB (10 ng/ml) for 24 h, fixed; anti-SMYD2 (mouse) and anti-myocardin (rabbit) with Duolink PLA probes
[2] = molecular target: Myc-tagged SMYD2 (SET and MYND domain-containing protein 2) (UniProt Q8R5A0); test: co-IP; 10T1/2 cells co-transfected with Myc-SMYD2, Flag-myocardin and HA-p300; nuclear extract, IP with anti-Myc antibody (normal rabbit IgG as control) in low salt IP buffer overnight at 4°C; blot with anti-SMYD2 and anti-HA
Flag-tagged myocardin = Flag-tagged myocardin (UniProt Q8VIM5); test: co-IP; 10T1/2 cells co-transfected with Myc-SMYD2 and Flag-myocardin for 48 h; 300 ug nuclear extract, IP with anti-Flag antibody (normal rabbit IgG as control) in low salt IP buffer overnight at 4°C, protein A/G beads; blot with anti-SMYD2 and anti-myocardin
[3] = molecular target: T1, tagged SRF (serum response factor) (UniProt Q9JM73); test: co-IP; 10T1/2 cells overexpressing tagged SMYD2 and SRF; no figure shown
T1 sequence: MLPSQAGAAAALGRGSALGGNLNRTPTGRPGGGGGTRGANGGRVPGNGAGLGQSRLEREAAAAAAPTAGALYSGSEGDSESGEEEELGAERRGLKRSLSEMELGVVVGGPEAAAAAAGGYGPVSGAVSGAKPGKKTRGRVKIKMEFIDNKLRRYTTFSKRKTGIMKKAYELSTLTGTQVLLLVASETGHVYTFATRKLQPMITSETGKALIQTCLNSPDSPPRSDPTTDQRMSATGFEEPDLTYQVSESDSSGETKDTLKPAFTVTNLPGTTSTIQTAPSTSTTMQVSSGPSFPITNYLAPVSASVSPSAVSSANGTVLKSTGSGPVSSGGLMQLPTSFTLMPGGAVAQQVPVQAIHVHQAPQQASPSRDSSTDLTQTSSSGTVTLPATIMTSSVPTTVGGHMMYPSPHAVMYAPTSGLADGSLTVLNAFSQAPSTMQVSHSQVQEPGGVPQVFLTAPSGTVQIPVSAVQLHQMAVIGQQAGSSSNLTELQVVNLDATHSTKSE

[4] = molecular target: T2, SRF, endogenous in cultured VSMCs (UniProt Q9JM73); test: co-IP; cultured VSMCs, endogenous proteins; no figure shown
T2 sequence: T1 sequence

Substance: SMYD2, endogenous in primary murine aortic VSMCs (from UniProt Q8R5A0 1-433)
- binding [1]: binds

Substance: HA-tagged p300 (from UniProt Q09472 1-2414)
- binding [2]: binds

Substance: Myc-tagged SMYD2 (SET and MYND domain-containing protein 2) (from UniProt Q8R5A0 1-433)
- binding (Flag-tagged myocardin): binds
- binding [3]: no binding

Substance: SMYD2, endogenous in cultured VSMCs (from UniProt Q8R5A0 1-433)
- binding [4]: no binding
